The BET-seq Pho4 binding data (Le et al. 2018)
Some of the results follow. These are noisy estimates, calculated here from bound and input reads.

molecular target: T1, Pho4 (S. cerevisiae) (UniProt P07270); test: relative binding free energy (BET-seq); higher = weaker binding; details: reference: library average
T1 sequence: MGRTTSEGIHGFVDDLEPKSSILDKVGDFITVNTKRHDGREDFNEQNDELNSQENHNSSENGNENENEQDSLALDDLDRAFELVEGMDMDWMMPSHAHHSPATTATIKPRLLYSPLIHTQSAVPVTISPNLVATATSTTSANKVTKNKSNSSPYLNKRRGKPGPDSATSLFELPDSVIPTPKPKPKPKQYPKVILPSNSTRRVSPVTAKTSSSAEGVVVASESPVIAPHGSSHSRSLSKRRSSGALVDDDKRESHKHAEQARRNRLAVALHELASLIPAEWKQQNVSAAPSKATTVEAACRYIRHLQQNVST

Sequence | relative binding free energy [kcal/mol]
TATAACACGTGTTTTA | 0.06
TGTCGCACGTGGGATT | -0.13
TGGGGCACGTGTACTT | -0.1
AACTGCACGTGAGGTG | 0.12
GGTCGCACGTGATGTA | 0.03
CGGGTCACGTGAGCGT | 0.08
TTTGACACGTGCTAGG | -0.06
AATAACACGTGGAGGT | -0.02
ATAATCACGTGCGTGT | 0.03
GCAATCACGTGGGGCT | 0.19
GTGTGCACGTGCATGT | 0.01
TATGTCACGTGCTGAA | 0.01
AGGGACACGTGGACGT | 0.07
AAATTCACGTGTGTGT | 0.44
GTAGTCACGTGCAGAG | 0.04
AGATTCACGTGTTGGA | 0.2
GGGTACACGTGAAGGT | 0.49
ATTAGCACGTGACTGT | 0.19
GTGTCCACGTGGTAAG | 0.11
AGTCACACGTGTTTGG | 0
CGATTCACGTGTTTGA | 0.38
TGGTTCACGTGCACAT | 0.33
AGGGACACGTGGGGTG | -0.09
AACTTCACGTGGGTGT | 0.18
TTAGGCACGTGGCCGT | -0.17

Sequence | relative binding free energy [kcal/mol]
TTTATCACGTGTGGTT | 0.13
TGGCGCACGTGGCGGA | -0.18
ATTTGCACGTGGGGCC | -0.13
TGCAACACGTGGGTAG | -0.06
AGTCGCACGTGGTTAG | -0.14
GCTTACACGTGTGATG | 0.18
ATCGTCACGTGTATAG | 0.3
CATGGCACGTGGTGAA | -0.13
TATGTCACGTGGTGGA | -0.04
GGGGGCACGTGAACAG | 0.18
CATGGCACGTGAGGTT | 0.12
GAAAGCACGTGTTAGG | -0.01
GATAGCACGTGTTTCG | 0.04
AGGCGCACGTGGCGTT | -0.2
TATCGCACGTGGTTGA | -0.02
ATGAGCACGTGGCATA | -0.03
CGTGCCACGTGTGTGT | -0.09
ATTGTCACGTGGTAGC | 0.06
CTGGTCACGTGAGGCT | 0.31
CAGTGCACGTGGTGGG | -0.14
GGTCTCACGTGAGAGG | 0.46
TGTGGCACGTGAGGAA | 0.14
TATCGCACGTGGTCTG | -0.15
TTTGACACGTGAGAGA | 0.15
AGTGTCACGTGGAGGG | -0.01

Sequence | relative binding free energy [kcal/mol]
GGGGGCACGTGTTTTG | 0.05
TTCAGCACGTGGAGGG | -0.09
GCTGTCACGTGTATTG | 0.03
CTCTTCACGTGAGGGT | 0.2
TGGGTCACGTGAGGAC | 0.28
GGGGCCACGTGGGGAC | -0.26
GTGGTCACGTGAAGTT | 0.36
TGTCTCACGTGGAGTG | 0.02
GTGTTCACGTGAGGTC | 0.26
AACTTCACGTGTGTGG | 0.32
GTATTCACGTGGCAGA | 0.35
TAGGTCACGTGCTAGG | -0.05
GTTGTCACGTGTGCGC | 0.15
ACATTCACGTGTAGTG | 0.2
TTGTCCACGTGTGAAG | 0.18
TCAGGCACGTGGATGT | -0.01
GTCGACACGTGGTGAG | 0.11
AGCATCACGTGGGGTA | -0.03
TCAAGCACGTGTATGT | -0.11
TATAGCACGTGTGCTG | -0.17
TGGCCCACGTGCGAGG | 0.02
GAGTTCACGTGAGAGA | 0.57
TGCTGCACGTGGATGG | 0.03
CGTTCCACGTGGGGTA | -0.07
TTGCTCACGTGTTTTT | 0.14

Sequence | relative binding free energy [kcal/mol]
CGTTGCACGTGGGTTA | -0.24
CTGTGCACGTGTGTGA | -0.06
GTGGACACGTGTCGGT | 0.08
TGTGTCACGTGAATAT | 0.26
GGGGCCACGTGTTTGA | -0.01
GTGTACACGTGTGTCA | 0.16
TGACGCACGTGATTTT | 0.15
ATGTTCACGTGGCCGT | 0
TGGCTCACGTGCTTTT | 0.17
CATAACACGTGGTCGG | 0.08
GAGGGCACGTGGCTGA | -0.08
GTTCGCACGTGAGGAG | 0.18
AATTTCACGTGTACGG | 0.31
GTAGTCACGTGCTGGG | 0.07
GGTTGCACGTGACATT | 0.28
GGGGTCACGTGACGTA | 0.32
TAATACACGTGGTGGT | -0.13
GGTCTCACGTGAGCGT | 0.24
GGATTCACGTGAGTTG | 0.33
AGATTCACGTGGGGCT | 0.24
AAGTACACGTGTCGGG | 0.21
GACGGCACGTGGTGCG | -0.1
TCTGGCACGTGGATAA | 0.04
ATCGTCACGTGAGGTT | 0.28
GGGCGCACGTGTTTTT | 0.06

Sequence | relative binding free energy [kcal/mol]
TTTGGCACGTGACTGG | 0.05
AGTTTCACGTGCGGCA | 0.19
GAGCGCACGTGGGGGA | -0.23
CGTAGCACGTGTAGGC | 0.03
ATGGTCACGTGTACTA | 0.25
GGGATCACGTGGCGTA | -0.04
CCGGTCACGTGGATGG | 0.25
GGATGCACGTGTCGAG | 0.03
AGAGTCACGTGGGGTG | -0.01
GATTTCACGTGGTGAT | 0.4
ATTGACACGTGGGGAT | -0.17
GGGACCACGTGGGTTA | -0.12
TCTTTCACGTGGCATG | 0.22
GGGTGCACGTGCGATG | 0.07
GGTGTCACGTGACGAG | 0.15
TTTGTCACGTGTCGAG | 0.2
GAGGGCACGTGTGTCA | -0.05
TATGCCACGTGATTGT | -0.02
AAGGTCACGTGCGGGG | 0
CAGGGCACGTGAGGCG | 0.03
TGTGTCACGTGGCTGC | 0.01
GGCCTCACGTGGGGTG | -0.07
ACTATCACGTGTTTGA | 0.15
CAGGGCACGTGGATAG | -0.11
AGTGACACGTGCGTTA | -0.1

Sequence | relative binding free energy [kcal/mol]
TAGTTCACGTGGGAGC | 0.19
GGTTTCACGTGGACAG | 0.37
GTTGACACGTGGTAAA | -0.01
GTTTTCACGTGGTGCC | 0.39
TTCGGCACGTGCTGTG | -0.03
TGGGTCACGTGTGTGA | 0.14
TGGCACACGTGGGTCG | -0.08
TGCGGCACGTGCTTTT | -0.12
TGAGCCACGTGTAAGG | 0.09
TCTGTCACGTGGTGTC | 0.01
TCGGTCACGTGAGTTT | 0.19
TGCCTCACGTGGGATG | 0.05
TCGGGCACGTGTGAGA | 0.1
GGCAGCACGTGGCGTG | -0.05
GGTCTCACGTGTTTGT | 0.17
ATAAACACGTGTCGGG | 0.05
ACTTGCACGTGTAGGT | 0.01
GGTGCCACGTGATATT | 0.17
GGGGGCACGTGGCAGG | -0.15
GGGGTCACGTGTGAGT | 0.19
AGTAGCACGTGGATGT | -0.09
